Results on 153 variants are retold here after a collection of fitness landscapes (doi:10.1126/science.1257360).

This is one part of the list.

First the molecules themselves.
B1: PhoQ; a variant is named by its letters at X, in order, P23837 (parent)
chain: MKKLLRLFFPLSLRVRFLLATAAVVLVLSLAYGMVALIGYSVSFDKTTFRLLRGESNLFYTLAKWENNKLHVELPENIDKQSPTMTLIYDENGQLLWAQRDVPWLMKMIQPDWLKSNGFHEIEADVNDTSLLLSGDHSIQQQLQEVREDDDDAEMTHSVAVNVYPATSRMPKLTIVVVDTIPVELKSSYMVWSWFIYVLSANLLLVIPLLWVAAWWSLRPIEALAKEVRELEEHNRELLNPATTRELTSLVRNLNRLLKSERERYDKYRTTLTDLTHSLKTPLXXLQXXLRSLRSEKMSVSDAEPVMLEQISRISQQIGYYLHRASMRGGTLLSRELHPVAPLLDNLTSALNKVYQRKGVNISLDISPEISFVGEQNDFVEVMGNVLDNACKYCLEFVEISARQTDEHLYIVVEDDGPGIPLSKREVIFDRGQRVDTLRPGQGVGLAVAREITEQYEGKIVAGESMLGGARMEVIFGRQHSAPKDE

Variants of B1 are the subject of the test. Put plainly: enrichment ratio after two sorts for PhoP signalling (ratio (wild type AVST 3.29)); higher = more functional. To be noted: with PhoP (E. coli).
On to FIYC, for which the enrichment ratio was no more than 0.25.
Then VKPC, with no more than 0.25; and EFDS, with no more than 0.25; and DSYY, with no more than 0.25.
As for EHRF, the enrichment ratio was no more than 0.25.
Take NTPI: the enrichment ratio was no more than 0.25.
Turning to ICDR, the enrichment ratio was no more than 0.25.
The result for VPVH reads no more than 0.25; that for ASVW, no more than 0.25.
The result for LLQE reads no more than 0.25; that for VFGV, no more than 0.25; that for MIIS, 1.61.
Consider YTQK, for which the enrichment ratio is no more than 0.25.
On to VASH, for which the enrichment ratio was no more than 0.25.
Turning to FYTF, the enrichment ratio was no more than 0.25.
Then ERHA, with no more than 0.25; and WIWA, with no more than 0.25; and QHRV, with no more than 0.25.
Consider HIMG, for which the enrichment ratio was no more than 0.25.
In the case of VVWL, the enrichment ratio is no more than 0.25.
For the variant REIA, the enrichment ratio is no more than 0.25.
Then VGTY, with no more than 0.25; and ASFH, with no more than 0.25.
Consider MKWG, for which the enrichment ratio is no more than 0.25.
Turning to TIGN, the enrichment ratio came out at 3.22.
On to RCRN, for which the enrichment ratio is no more than 0.25.
With VLWY, the enrichment ratio is no more than 0.25.
Turning to GPTA, the enrichment ratio was no more than 0.25.
DAMS: the enrichment ratio was no more than 0.25.
In the case of KGYW, the enrichment ratio is no more than 0.25.
Regarding MKLG, the enrichment ratio is no more than 0.25.
The result for IDKR reads no more than 0.25; that for MFMT, no more than 0.25; that for GSQQ, no more than 0.25.
Then ICFM, with no more than 0.25; and NPRS, with no more than 0.25.
The result for PAQP reads no more than 0.25; that for NMLN, no more than 0.25.
With IVQH, the enrichment ratio was no more than 0.25.
The result for WGPA reads no more than 0.25.
For FASV, the enrichment ratio was no more than 0.25.
For YGAR, the enrichment ratio is no more than 0.25.
Regarding PKTC, the enrichment ratio is no more than 0.25.
The result for PDPV reads no more than 0.25.
On to RPQE, for which the enrichment ratio is no more than 0.25.
With QHDM, the enrichment ratio was determined as 19.5.
Take TYGH: the enrichment ratio is no more than 0.25.
Then WFGR, with no more than 0.25; and EAHG, with no more than 0.25.
Regarding YWLP, the enrichment ratio was no more than 0.25.
For WLYY, the enrichment ratio was no more than 0.25.
As for ITQW, the enrichment ratio was no more than 0.25.
The result for GHEL reads no more than 0.25; that for YFCW, no more than 0.25; that for FKWC, no more than 0.25.
For the variant RWPA, the enrichment ratio was no more than 0.25.
On to ICVI, for which the enrichment ratio is no more than 0.25.
The result for QIII reads no more than 0.25; that for GKRN, no more than 0.25; that for KNVN, no more than 0.25.
For EEPC, the enrichment ratio was no more than 0.25.
On to VKMG, for which the enrichment ratio is no more than 0.25.
On to SYRE, for which the enrichment ratio is no more than 0.25.
The result for VTFP reads no more than 0.25; that for HAFR, no more than 0.25; that for GSGY, no more than 0.25.
Consider MHSL, for which the enrichment ratio was 0.261.
With QGPA, the enrichment ratio was no more than 0.25.
QEAT: the enrichment ratio came out at 3.8.
With EQGF, the enrichment ratio is no more than 0.25.
As to FNSP, the enrichment ratio is no more than 0.25.
The result for QRWN reads no more than 0.25; that for FAAL, no more than 0.25; that for DWNT, no more than 0.25.
In the case of WGFY, the enrichment ratio is no more than 0.25.
Consider RVMT, for which the enrichment ratio was no more than 0.25.
FWDF: the enrichment ratio was no more than 0.25.
Regarding QYWD, the enrichment ratio was no more than 0.25.
Regarding NQKV, the enrichment ratio was no more than 0.25.
With DHNS, the enrichment ratio was no more than 0.25.
With TFDE, the enrichment ratio is no more than 0.25.
Consider EGQG, for which the enrichment ratio is no more than 0.25.
The result for INWD reads no more than 0.25; that for STFF, no more than 0.25; that for NKFL, no more than 0.25.
Consider HNSQ, for which the enrichment ratio was no more than 0.25.
Consider YHGE, for which the enrichment ratio is no more than 0.25.
For the variant NKML, the enrichment ratio is no more than 0.25.
The result for SKGG reads no more than 0.25.
QRPN: the enrichment ratio is no more than 0.25.
Then WKNM, with no more than 0.25; and LGIR, with no more than 0.25; and LHIC, with no more than 0.25.
The result for NKDN reads no more than 0.25; that for IDMM, no more than 0.25.
For the variant PLVG, the enrichment ratio was no more than 0.25.
For the variant MRWD, the enrichment ratio is no more than 0.25.
Consider PNWY, for which the enrichment ratio was no more than 0.25.
For the variant MECK, the enrichment ratio came out at 27.3.
AKHS: the enrichment ratio was no more than 0.25.
Then AMTD, with no more than 0.25; and TSNK, with no more than 0.25.
As for YTSC, the enrichment ratio was no more than 0.25.
Turning to SWHV, the enrichment ratio is no more than 0.25.
Consider DKFY, for which the enrichment ratio is no more than 0.25.
Consider LPKR, for which the enrichment ratio is no more than 0.25.
On to DKYY, for which the enrichment ratio was no more than 0.25.
For MLLM, the enrichment ratio is 7.62.
Turning to PEDR, the enrichment ratio was no more than 0.25.
For the variant TNKN, the enrichment ratio was no more than 0.25.
As for PDGH, the enrichment ratio is no more than 0.25.
Regarding DCIL, the enrichment ratio was no more than 0.25.
AYVE: the enrichment ratio is no more than 0.25.
Regarding HKMT, the enrichment ratio is no more than 0.25.
Regarding IQGT, the enrichment ratio was no more than 0.25.
With PPDI, the enrichment ratio was no more than 0.25.
For the variant PPCG, the enrichment ratio is no more than 0.25.
QELN: the enrichment ratio was no more than 0.25.
As for ENFM, the enrichment ratio was no more than 0.25.
In the case of RWRA, the enrichment ratio was no more than 0.25.
Then NTTH, with no more than 0.25; and NSSD, with no more than 0.25; and YGGQ, with no more than 0.25.
The result for DMHM reads no more than 0.25.
The result for AYCD reads no more than 0.25.
For KHYN, the enrichment ratio was no more than 0.25.
The result for ACRY reads no more than 0.25; that for FREA, no more than 0.25.
As for YVTN, the enrichment ratio is no more than 0.25.
Turning to SPER, the enrichment ratio was no more than 0.25.
Then ASSL, with 11.7; and AWKC, with no more than 0.25; and WRWK, with no more than 0.25.
With QNPS, the enrichment ratio was no more than 0.25.
For the variant PHCP, the enrichment ratio is no more than 0.25.
For the variant RMLA, the enrichment ratio was no more than 0.25.
As for IYYV, the enrichment ratio is no more than 0.25.
The result for WTTP reads no more than 0.25; that for AHFC, no more than 0.25.
The result for QQQP reads no more than 0.25; that for PHEG, no more than 0.25; that for NMCD, no more than 0.25.
As to RHCI, the enrichment ratio was no more than 0.25.
Consider KCCR, for which the enrichment ratio is no more than 0.25.
YMMV: the enrichment ratio was determined as 0.316.
For the variant WPKG, the enrichment ratio is no more than 0.25.
Then PRWC, with no more than 0.25.
KTMQ: the enrichment ratio was no more than 0.25.
Turning to AMMF, the enrichment ratio was 10.
Take VKLL: the enrichment ratio came to 0.684.
Then HRSH, with no more than 0.25; and GNHG, with no more than 0.25; and LKKV, with no more than 0.25.
